{"source": "PubChem BioAssay AID602310", "about": "(National Center for Advancing Translational Sciences (NCATS), 2012)", "note": "The campaign covered roughly 410,000 compounds. About 310 (0.076%) were called active. Inconclusive means that the source gave no clear call. Such entries were picked first, then a sample of the others. Calls follow the shape of the dose curve; as a rule, active = well fitted curve in the direction sought with a large enough effect; inconclusive = small, poorly fitted or top-dose-only effect; inactive = flat fitted curve, though single readings scatter. Potencies beside an inconclusive call are fits to weak or partial responses and may not hold up. Potency is read from the fitted curve at half-maximal effect; tags tell the direction and shape of the fitted curve.", "data": [{"target": "DNA dC->dU-editing enzyme APOBEC-3G (Homo sapiens) (UniProt Q9HC16)", "sequence (Q9HC16 whole entry, looked up)": "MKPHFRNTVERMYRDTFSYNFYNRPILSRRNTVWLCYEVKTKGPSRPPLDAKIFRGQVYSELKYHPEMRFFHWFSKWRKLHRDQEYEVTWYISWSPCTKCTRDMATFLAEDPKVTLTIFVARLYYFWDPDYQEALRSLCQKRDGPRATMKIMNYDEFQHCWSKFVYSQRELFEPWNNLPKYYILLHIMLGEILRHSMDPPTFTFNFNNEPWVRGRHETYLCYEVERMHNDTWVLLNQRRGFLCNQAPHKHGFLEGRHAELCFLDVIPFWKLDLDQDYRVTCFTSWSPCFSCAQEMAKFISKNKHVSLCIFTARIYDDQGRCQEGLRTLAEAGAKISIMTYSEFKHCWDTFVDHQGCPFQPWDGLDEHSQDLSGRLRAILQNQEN", "assay": "qHTS for Inhibitors of Vif-A3G Interactions: qHTS; also: nearly all actives have a fitted effect of over 60% in size", "settings": "HeLa A3G-eYFP + Vif (tagged APOBEC3G with the HIV-1 protein that degrades it), YFP fluorescence, overnight; series mostly up to 46.1 µM", "method_in_brief": "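Read-out is eYFP fluorescence (Ex 488/Em 500-530) from Vif-expressing HeLa A3G-eYFP cells; more signal means A3G escaped Vif-mediated degradation. Cells plated overnight, compound pinned in, incubated overnight at 37 deg C.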", "values": [{"smiles": "CCc1ccc(Nc2n[n+](-c3ccccc3)c(-c3ccc(N(CC)CC)cc3)s2)cc1", "Potency": "inconclusive: 35.5 µM [inhibitor, single point]"}, {"smiles": "COc1ccc(-c2nnc(SCC(=O)OC3CCCCC3)o2)cc1OC", "Potency": "inactive"}, {"smiles": "COCCNC(=O)CN(Cc1ccccc1)S(=O)(=O)c1ccc2nc(C)sc2c1", "Potency": "inactive"}, {"smiles": "Cc1cc(-n2c(C)cc(C(=O)CCl)c2C)no1", "Potency": "inconclusive: 10 µM [inhibitor, partial curve]"}, {"smiles": "COc1cc(-c2cnc3c(NC=O)cc(-c4ccccc4Cl)cn23)cc(OC)c1OC", "Potency": "inconclusive: 0.562 µM [inhibitor, full curve, poor fit]"}, {"smiles": "CC(O)COCC1OC2OC3C(COCC(C)O)OC(OC4C(COCC(C)O)OC(OC5C(COCC(C)O)OC(OC6C(COCC(C)O)OC(OC7C(COCC(C)O)OC(OC8C(COCC(C)O)OC(OC1C(OCC(C)O)C2OCC(C)O)C(OCC(C)O)C8OCC(C)O)C(OCC(C)O)C7OCC(C)O)C(OCC(C)O)C6OCC(C)O)C(OCC(C)O)C5OCC(C)O)C(OCC(C)O)C4OCC(C)O)C(OCC(C)O)C3OCC(C)O", "note": "(centres undefined)", "Potency": "inactive"}, {"smiles": "COc1cc(OC)c2c(-c3cccc(-c4sccc4C(C)=O)c3)cc(=O)oc2c1", "Potency": "inconclusive: 0.562 µM [inhibitor, full curve, poor fit]"}, {"smiles": "O=C(O)c1ccc2c(c1)C1C=CCC1C(c1cc3c(cc1Br)OCO3)N2", "note": "(centres undefined)", "Potency": "inconclusive: 10 µM [inhibitor, partial curve]"}, {"smiles": "COc1ccc(NC2=CC(=O)CC(c3ccccc3)C2)c(OC)c1", "note": "(centres undefined)", "Potency": "inconclusive: 3.55 µM [inhibitor, partial curve, poor fit]"}, {"smiles": "CCc1nc2ccc(C(=O)NCCC(C)C)cn2c1N(C)Cc1nccs1", "Potency": "inactive"}, {"smiles": "CSc1nsc(/C=C/Nc2ccc(C)cc2)c1C#N", "Potency": "active: 12.6 µM"}, {"smiles": "CCN(CC)C(=O)[C@H]1C[C@H](CC(=O)NCCCN(C)C)C(=O)N2CCc3c([nH]c4ccc(Cl)cc34)[C@]12C", "Potency": "inactive"}, {"smiles": "Cc1nn2c(=O)cc(COC(=O)c3ccc(NC(=O)c4cccc(Br)c4)cc3)nc2s1", "Potency": "inactive"}, {"smiles": "CC(=O)O[C@H]1C[C@@]2(O)[C@@H](OC(=O)c3ccccc3)C3[C@@](C)([C@@H](O)C[C@H]4OC[C@@]34OC(C)=O)[C@@H](O)[C@H](OC(C)=O)C(=C1C)C2(C)C", "note": "(some centres undefined)", "Potency": "inconclusive: 17.8 µM [inhibitor, single point]"}, {"smiles": "O=C1C=CC(=O)N1CCNc1ncc(C(F)(F)F)cc1Cl", "Potency": "inconclusive: 15.8 µM [inhibitor, single point]"}, {"smiles": "CCOc1ccc(C2=NNC(c3cccnc3)=Nc3ccc(OC)cc32)cc1", "Potency": "inactive"}, {"smiles": "CC1(C(=O)NCc2ccc(F)c(F)c2)Cc2c(-c3cccc(C(N)=O)c3)ccnc2O1", "note": "(centres undefined)", "Potency": "inconclusive: 11.2 µM [inhibitor, partial curve, poor fit]"}, {"smiles": "Cc1cccc(C(=O)c2c(N)sc3c2CCC(C)C3)c1", "note": "(centres undefined)", "Potency": "inconclusive: 15.8 µM [inhibitor, single point]"}, {"smiles": "O=C(CSc1ccccc1)Nc1nc2ccccc2[nH]1", "Potency": "inconclusive: 11.2 µM [inhibitor, partial curve, poor fit]"}, {"smiles": "C=CCNC(=O)c1ccc(-c2ccc([N+](=O)[O-])cc2)o1", "Potency": "inactive"}, {"smiles": "O=C1/C(=C/c2ccc(O)cc2)SC(=S)N1CC1CCCO1", "note": "(centres undefined)", "Potency": "inactive"}, {"smiles": "CCNc1nc(NCC)nc(-n2cc(C(=O)c3cc(Cl)ccc3O)cn2)n1", "Potency": "inactive"}, {"smiles": "CCOc1ccc(N2CCc3c(C)nc(SC)nc32)cc1", "Potency": "inconclusive: 3.55 µM [inhibitor, full curve]"}, {"smiles": "O=C(CN1C(=O)COc2ccc(S(=O)(=O)N3CCCC3)cc21)N1CCN(c2ccc(Cl)cc2)CC1", "Potency": "inconclusive: 35.5 µM [inhibitor, single point]"}, {"smiles": "COC(=O)Nc1ccc2ccc3c(NC(=O)OC)ccc4ccc1c2c43", "Potency": "inconclusive: 25.1 µM [inhibitor, single point]"}, {"smiles": "O=S(=O)(c1ccccc1C(F)(F)F)N1CCN(c2nc(-c3cccs3)nc3ccccc23)CC1", "Potency": "inactive"}, {"smiles": "Cc1cccc(N2CCN(C(=O)c3cc(S(=O)(=O)N4CCCC4)cn3C)CC2)c1C", "Potency": "inconclusive: 2 µM [inhibitor, full curve, poor fit]"}, {"smiles": "COc1ccc(-c2cc3ccccc3oc2=O)cc1NC(=O)c1ccc(Br)o1", "Potency": "inconclusive: 35.5 µM [inhibitor, single point]"}, {"smiles": "COC(=O)c1ccc(NC(=O)CC2Nc3cc(C)c(C)cc3NC2=O)cc1", "note": "(centres undefined)", "Potency": "inconclusive: 20 µM [inhibitor, partial curve, poor fit]"}, {"smiles": "COCCCN(C(C)=O)c1nc(-c2ccc(OC)cc2)cs1", "Potency": "inconclusive: 7.94 µM [inhibitor, partial curve]"}, {"smiles": "CCOc1ccc(S(=O)(=O)Nc2ccc3oc(C)c(C(=O)OC(C)C)c3c2)cc1", "Potency": "inconclusive: 3.16 µM [inhibitor, single point]"}, {"smiles": "Brc1ccccc1/C=N/Nc1ccc2ccccc2n1", "Potency": "inactive"}, {"smiles": "Cc1cc(C)n(CCN(C)C(=O)C2CCC(=O)N(CCc3cccc(F)c3)C2)n1", "note": "(centres undefined)", "Potency": "inactive"}, {"smiles": "CCN(CC)c1ccc2c(c1)oc(=O)c1c(Cl)cc(=O)oc12", "Potency": "inconclusive: 20 µM [inhibitor, partial curve, poor fit]"}, {"smiles": "O=C(NCCN1CCOCC1)c1ccc(=O)n(Cc2ccc(Cl)cc2)c1", "Potency": "inactive"}, {"smiles": "O=C(CS(=O)(=O)c1cccc2nsnc12)N1CCN(c2cccc(C(F)(F)F)c2)CC1", "Potency": "inactive"}, {"smiles": "COc1ccccc1Nc1nnc(SCc2cc(=O)n3ccsc3n2)s1", "Potency": "inconclusive: 25.1 µM [inhibitor, single point]"}, {"smiles": "COc1ccc(Br)cc1/C=N/NS(=O)(=O)c1ccccc1", "Potency": "inconclusive: 12.6 µM [inhibitor, partial curve]"}, {"smiles": "CC1(C)CC(=O)C=C(OC(=O)c2ccc(Cl)cc2)C1", "Potency": "inactive"}, {"smiles": "CCc1nc(N[C@@H](Cc2c[nH]c3ccccc23)C(=O)O)c2oc3ccccc3c2n1", "Potency": "inconclusive: 31.6 µM [inhibitor, partial curve, poor fit]"}, {"smiles": "CCOc1cc(/C=C/C(=O)c2ccc(OC)c(CN3CCOCC3)c2)cc(Br)c1O", "Potency": "inconclusive: 35.5 µM [inhibitor, single point]"}, {"smiles": "Cc1ccc(NC(=O)C2CC(=O)N(C(C)C)C2)cc1C", "note": "(centres undefined)", "Potency": "inactive"}, {"smiles": "CCCC(=O)N1CCN(c2ccc(NC(=O)c3cccs3)cc2Cl)CC1", "Potency": "inactive"}, {"smiles": "CC1CCN(CCc2nc3cc(NS(=O)(=O)c4ccccc4)ccc3n2C)CC1", "Potency": "inconclusive: 35.5 µM [inhibitor, single point]"}, {"smiles": "CCCSc1nnc(N2C(=O)C(O)=C(C(=O)c3ccco3)C2c2ccccc2F)s1", "note": "(centres undefined)", "Potency": "inconclusive: 12.6 µM [inhibitor, single point]"}, {"smiles": "COc1ccccc1C=C1CCc2ccccc2C1=O", "Potency": "inconclusive: 31.6 µM [inhibitor, single point]"}, {"smiles": "c1ccc(CCc2nn3c(Cn4cnc5ccccc54)nnc3s2)cc1", "Potency": "inactive"}, {"smiles": "N#Cc1c(-c2ccc(Cl)cc2)c(C#N)c(=O)n(N)c1N", "Potency": "inactive"}, {"smiles": "CC(C)COc1ccc(C(=O)OCC(=O)NCc2cccs2)cc1", "Potency": "inconclusive: 15.8 µM [inhibitor, single point]"}, {"smiles": "CC1(C(=O)NCC2CC2)Cc2c(-c3ccc4c(c3)OCO4)ccnc2O1", "note": "(centres undefined)", "Potency": "inconclusive: 7.08 µM [inhibitor, full curve, poor fit]"}, {"smiles": "Cc1ccc2nc(Cl)c3nnnn3c2c1", "Potency": "inconclusive: 25.1 µM [inhibitor, single point]"}, {"smiles": "N=c1n(CC(=O)c2ccc([N+](=O)[O-])cc2)c2ccccc2n1Cc1ccccc1", "Potency": "inconclusive: 11.2 µM [inhibitor, partial curve]"}, {"smiles": "O=C(CSc1cccc[n+]1[O-])Nc1ccccc1Oc1ccccc1", "Potency": "inconclusive: 35.5 µM [inhibitor, single point]"}, {"smiles": "O=Cc1ccc(N2CCCCCC2)cc1", "Potency": "inactive"}, {"smiles": "CCOc1cc(/C=C/c2nc3ccccc3c(=O)[nH]2)ccc1O", "Potency": "inactive"}, {"smiles": "CCn1c2ccccc2c2c3ncc4cccn4c3ccc21", "Potency": "inconclusive: 12.6 µM [inhibitor, partial curve, poor fit]"}, {"smiles": "Cc1c(O)ccc(/C(Cc2ccc3ccccc3n2)=N\\N)c1O", "Potency": "inconclusive: 7.08 µM [inhibitor, partial curve, poor fit]"}, {"smiles": "O=S(=O)(c1ccccc1)c1nnn2c1nc(NCc1ccc(F)cc1)c1sccc12", "Potency": "inactive"}, {"smiles": "O=S(=O)(c1ccc(Cl)cc1)c1snnc1-c1ccccc1", "Potency": "inactive"}, {"smiles": "COc1ccc(/C=N/NC(=O)c2c(C)nc3ccc(Br)cn23)cc1OC", "Potency": "inconclusive: 3.55 µM [inhibitor, full curve, poor fit]"}, {"smiles": "COc1ccc(N2Cc3cccc(C(=O)Nc4cc(C)cc(C)c4)c3C2=O)cc1", "Potency": "inactive"}, {"smiles": "O=c1cc(-c2ccccc2Cl)oc2c(NS(=O)(=O)c3cc(Cl)cc(Cl)c3O)ccc(O)c12", "Potency": "inactive"}, {"smiles": "O=C(O)c1ccc(CSc2nnc(-c3ccncc3)n2-c2ccc(Br)cc2)cc1", "Potency": "inactive"}, {"smiles": "COc1ccc2nc(C)cc(SCC(=O)N/N=C/c3cccc4ccccc34)c2c1", "Potency": "inconclusive: 7.94 µM [inhibitor, partial curve]"}, {"smiles": "CCCN(CCC)CC(O)Cn1cc(/C=C/C(=O)c2ccc(C)cc2)c2ccccc21", "note": "(centres undefined)", "Potency": "inconclusive: 25.1 µM [inhibitor, single point]"}, {"smiles": "O=C(NC1CCCCC1)NC1CCN(CC(=O)N2CCOCC2)CC1", "Potency": "inactive"}, {"smiles": "Cc1nnsc1NC(=O)OCc1ccc(C(C)(C)C)cc1", "Potency": "inactive"}, {"smiles": "CCN1CCCC1CNC(=O)c1cc2c(-c3ccc(Cl)cc3)nn(C)c2s1", "note": "(centres undefined)", "Potency": "inactive"}, {"smiles": "Cc1ccc(CNC(=O)C2CCCN(c3nc4ccccc4n4cccc34)C2)cc1", "note": "(centres undefined)", "Potency": "inconclusive: 35.5 µM [inhibitor, single point]"}]}]}
